Laboratory results published in the supplement of paper PMC8728848.
The list shows a part of the results.

Tests used:
Experiment in all cases: glycan array binding signal (z-score within array); higher = stronger binding
Conditions in all cases: glycan notation: IUPAC condensed, linker removed
[1] = target: Gal(b1-4)GlcNAc(b1-3)Gal(b1-3)GlcNAc
Method in brief: (§1)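 Columns mapping to the same glycan were averaged after glycan names were converted to IUPAC-condensed notation. The data come from 3228 arrays in the Consortium for Functional Glycomics database, limited to those with an available protein sequence. Binding is reported as a within-array Z-score averaged across arrays of one protein sequence and across linkers.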

[2] = target: Gal(b1-4)GlcNAc(b1-3)Gal(b1-4)Glc
Method in brief: as §1

[3] = target: Gal(b1-4)GlcNAc(b1-3)Gal(b1-4)GlcNAc
Method in brief: as §1

[4] = target: Gal(b1-4)GlcNAc(b1-3)Gal(b1-4)GlcNAc(b1-2)Man(a1-3)[Gal(b1-4)GlcNAc(b1-3)Gal(b1-4)GlcNAc(b1-2)Man(a1-6)]Man(b1-4)GlcNAc(b1-4)GlcNAc
Method in brief: as §1

[5] = target: Gal(b1-4)GlcNAc(b1-3)Gal(b1-4)GlcNAc(b1-2)Man(a1-3)[Gal(b1-4)GlcNAc(b1-3)Gal(b1-4)GlcNAc(b1-2)Man(a1-6)]Man(b1-4)GlcNAc(b1-4)[Fuc(a1-6)]GlcNAc
Method in brief: as §1

[6] = target: Gal(b1-4)GlcNAc(b1-3)Gal(b1-4)GlcNAc(b1-2)[Gal(b1-4)GlcNAc(b1-3)Gal(b1-4)GlcNAc(b1-6)]Man(a1-6)[Gal(b1-4)GlcNAc(b1-3)Gal(b1-4)GlcNAc(b1-2)Man(a1-3)]Man(b1-4)GlcNAc(b1-4)GlcNAc
Method in brief: as §1

[7] = target: Gal(b1-4)GlcNAc(b1-3)Gal(b1-4)GlcNAc(b1-2)[Gal(b1-4)GlcNAc(b1-3)Gal(b1-4)GlcNAc(b1-6)]Man(a1-6)[Gal(b1-4)GlcNAc(b1-3)Gal(b1-4)GlcNAc(b1-2)Man(a1-3)]Man(b1-4)GlcNAc(b1-4)[Fuc(a1-6)]GlcNAc
Method in brief: as §1

[8] = target: Gal(b1-4)GlcNAc(b1-3)Gal(b1-4)GlcNAc(b1-3)Gal(b1-4)GlcNAc
Method in brief: as §1

[9] = target: Gal(b1-4)GlcNAc(b1-3)Gal(b1-4)GlcNAc(b1-3)Gal(b1-4)GlcNAc(b1-2)Man(a1-3)[Gal(b1-4)GlcNAc(b1-3)Gal(b1-4)GlcNAc(b1-3)Gal(b1-4)GlcNAc(b1-2)Man(a1-6)]Man(b1-4)GlcNAc(b1-4)GlcNAc
Method in brief: as §1

[10] = target: Gal(b1-4)GlcNAc(b1-3)Gal(b1-4)GlcNAc(b1-3)Gal(b1-4)GlcNAc(b1-2)Man(a1-3)[Gal(b1-4)GlcNAc(b1-3)Gal(b1-4)GlcNAc(b1-3)Gal(b1-4)GlcNAc(b1-2)Man(a1-6)]Man(b1-4)GlcNAc(b1-4)[Fuc(a1-6)]GlcNAc
Method in brief: as §1

[11] = target: Gal(b1-4)GlcNAc(b1-3)Gal(b1-4)GlcNAc(b1-3)Gal(b1-4)GlcNAc(b1-2)[Gal(b1-4)GlcNAc(b1-3)Gal(b1-4)GlcNAc(b1-3)Gal(b1-4)GlcNAc(b1-6)]Man(a1-6)[Gal(b1-4)GlcNAc(b1-3)Gal(b1-4)GlcNAc(b1-3)Gal(b1-4)GlcNAc(b1-2)Man(a1-3)]Man(b1-4)GlcNAc(b1-4)[Fuc(a1-6)]GlcNAc
Method in brief: as §1

[12] = target: Gal(b1-4)GlcNAc(b1-3)Gal(b1-4)GlcNAc(b1-3)Gal(b1-4)GlcNAc(b1-3)Gal(b1-4)GlcNAc(b1-2)Man(a1-3)[Gal(b1-4)GlcNAc(b1-3)Gal(b1-4)GlcNAc(b1-3)Gal(b1-4)GlcNAc(b1-3)Gal(b1-4)GlcNAc(b1-2)Man(a1-6)]Man(b1-4)GlcNAc(b1-4)GlcNAc
Method in brief: as §1

[13] = target: Gal(b1-4)GlcNAc(b1-3)Gal(b1-4)GlcNAc(b1-3)Gal(b1-4)GlcNAc(b1-3)Gal(b1-4)GlcNAc(b1-2)Man(a1-3)[Gal(b1-4)GlcNAc(b1-3)Gal(b1-4)GlcNAc(b1-3)Gal(b1-4)GlcNAc(b1-3)Gal(b1-4)GlcNAc(b1-2)Man(a1-6)]Man(b1-4)GlcNAc(b1-4)[Fuc(a1-6)]GlcNAc
Method in brief: as §1

[14] = target: Gal(b1-4)GlcNAc(b1-3)Gal(b1-4)GlcNAc(b1-3)Gal(b1-4)GlcNAc(b1-3)Gal(b1-4)GlcNAc(b1-2)[Gal(b1-4)GlcNAc(b1-3)Gal(b1-4)GlcNAc(b1-3)Gal(b1-4)GlcNAc(b1-3)Gal(b1-4)GlcNAc(b1-6)]Man(a1-6)[Gal(b1-4)GlcNAc(b1-3)Gal(b1-4)GlcNAc(b1-3)Gal(b1-4)GlcNAc(b1-3)Gal(b1-4)GlcNAc(b1-2)Man(a1-3)]Man(b1-4)GlcNAc(b1-4)[Fuc(a1-6)]GlcNAc
Method in brief: as §1

[15] = target: Gal(b1-4)GlcNAc(b1-3)Gal(b1-4)GlcNAc(b1-3)Gal(b1-4)GlcNAc(b1-3)Gal(b1-4)GlcNAc(b1-3)Gal(b1-4)GlcNAc(b1-2)Man(a1-3)[Gal(b1-4)GlcNAc(b1-3)Gal(b1-4)GlcNAc(b1-3)Gal(b1-4)GlcNAc(b1-3)Gal(b1-4)GlcNAc(b1-3)Gal(b1-4)GlcNAc(b1-2)Man(a1-6)]Man(b1-4)GlcNAc(b1-4)GlcNAc
Method in brief: as §1

[16] = target: Gal(b1-4)GlcNAc(b1-3)Gal(b1-4)GlcNAc(b1-3)Gal(b1-4)GlcNAc(b1-3)Gal(b1-4)GlcNAc(b1-3)Gal(b1-4)GlcNAc(b1-2)Man(a1-3)[Gal(b1-4)GlcNAc(b1-3)Gal(b1-4)GlcNAc(b1-3)Gal(b1-4)GlcNAc(b1-3)Gal(b1-4)GlcNAc(b1-3)Gal(b1-4)GlcNAc(b1-2)Man(a1-6)]Man(b1-4)GlcNAc(b1-4)[Fuc(a1-6)]GlcNAc
Method in brief: as §1

[17] = target: Gal(b1-4)GlcNAc(b1-3)Gal(b1-4)GlcNAc(b1-3)Gal(b1-4)GlcNAc(b1-3)Gal(b1-4)GlcNAc(b1-3)Gal(b1-4)GlcNAc(b1-2)[Gal(b1-4)GlcNAc(b1-3)Gal(b1-4)GlcNAc(b1-3)Gal(b1-4)GlcNAc(b1-3)Gal(b1-4)GlcNAc(b1-3)Gal(b1-4)GlcNAc(b1-6)]Man(a1-6)[Gal(b1-4)GlcNAc(b1-3)Gal(b1-4)GlcNAc(b1-3)Gal(b1-4)GlcNAc(b1-3)Gal(b1-4)GlcNAc(b1-3)Gal(b1-4)GlcNAc(b1-2)Man(a1-3)]Man(b1-4)GlcNAc(b1-4)[Fuc(a1-6)]GlcNAc
Method in brief: as §1

[18] = target: Gal(b1-4)GlcNAc(b1-3)Gal(b1-4)GlcNAc(b1-3)Gal(b1-4)GlcNAc(b1-3)Gal(b1-4)GlcNAc(b1-3)Gal(b1-4)GlcNAc(b1-3)Gal(b1-4)GlcNAc(b1-2)Man(a1-3)[Gal(b1-4)GlcNAc(b1-3)Gal(b1-4)GlcNAc(b1-3)Gal(b1-4)GlcNAc(b1-3)Gal(b1-4)GlcNAc(b1-3)Gal(b1-4)GlcNAc(b1-3)Gal(b1-4)GlcNAc(b1-2)Man(a1-6)]Man(b1-4)GlcNAc(b1-4)GlcNAc
Method in brief: as §1

[19] = target: Gal(b1-4)GlcNAc(b1-3)Gal(b1-4)GlcNAc(b1-3)GalNAc
Method in brief: as §1

B1: MGL (Homo sapiens), Q8IUN9 (protein)
chain: MTRTYENFQYLENKVKVQGFKNGPLPLQSLLQRLCSGPCHLLLSLGLGLLLLVIICVVGFQNSKFQRDLVTLRTDFSNFTSNTVAEIQALTSQGSSLEETIASLKAEVEGFKQERQAGVSELQEHTTQKAHLGHCPHCPSVCVPVHSEMLLRVQQLVQDLKKLTCQVATLNNNASTEGTCCPVNWVEHQDSCYWFSHSGMSWAEAEKYCQLKNAHLVVINSREEQNFVQKYLGSAYTWMGLSDPEGAWKWVDGTDYATGFQNWKPGQPDDWQGHGLGGGEDCAHFHPDGRWNDDVCQRPYHWVCEAGLGQTSQESH
- glycan array binding signal (z-score) [1]: -0.248
- glycan array binding signal (z-score) [2]: -0.239
- glycan array binding signal (z-score) [3]: -0.242
- glycan array binding signal (z-score) [4]: -0.235
- glycan array binding signal (z-score) [5]: -0.232
- glycan array binding signal (z-score) [6]: -0.128
- glycan array binding signal (z-score) [7]: -0.217
- glycan array binding signal (z-score) [8]: -0.24
- glycan array binding signal (z-score) [9]: -0.229
- glycan array binding signal (z-score) [10]: -0.222
- glycan array binding signal (z-score) [11]: -0.218
- glycan array binding signal (z-score) [12]: -0.224
- glycan array binding signal (z-score) [13]: -0.226
- glycan array binding signal (z-score) [14]: -0.219
- glycan array binding signal (z-score) [15]: -0.223
- glycan array binding signal (z-score) [16]: -0.18
- glycan array binding signal (z-score) [17]: -0.188
- glycan array binding signal (z-score) [18]: -0.218
- glycan array binding signal (z-score) [19]: -0.271
